The source of these data is article PMC10726135.

The other results are listed elsewhere or left out. At the low end of the ranking, values are background and their order means little. Measured with an extract: partners may take part in the binding.

The target in the test is T1, HNF4alpha8 (COS-7 nuclear extract) (UniProt P41235-5).
T1 sequence: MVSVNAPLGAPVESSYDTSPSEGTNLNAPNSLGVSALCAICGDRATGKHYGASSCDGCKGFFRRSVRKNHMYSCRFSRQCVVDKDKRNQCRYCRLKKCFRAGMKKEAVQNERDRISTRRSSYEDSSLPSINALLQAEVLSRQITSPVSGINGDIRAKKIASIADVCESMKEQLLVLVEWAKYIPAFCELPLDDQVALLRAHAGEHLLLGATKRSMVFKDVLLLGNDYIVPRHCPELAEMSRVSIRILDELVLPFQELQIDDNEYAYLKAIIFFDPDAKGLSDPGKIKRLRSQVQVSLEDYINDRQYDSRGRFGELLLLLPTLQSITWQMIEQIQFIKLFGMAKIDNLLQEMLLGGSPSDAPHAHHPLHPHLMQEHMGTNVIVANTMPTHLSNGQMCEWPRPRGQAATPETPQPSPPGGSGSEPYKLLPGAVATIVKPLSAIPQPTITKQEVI
The test is described as follows: protein-binding microarray. The note with it: COS-7 nuclear extract on double-stranded Agilent 4x180k PBM; binding buffer, salt, pH and temperature not given; high values mean tight binding; double strand, one strand shown; sequences stand for … in …GCCTAGGGAGATTAGAGTATCGGTCGA
As for GATGATTCCCTTATCTTCTCCCCTGCCAAA, the binding signal (log2 normalized intensity) was 3.42.
As to TCTTTGTTCAGAGGGCATGTTGAGTGGAAT, the binding signal (log2 normalized intensity) is 2.14.
Consider CAGAAGGGACTAGCCTTATCTCAGATGAGA, for which the binding signal (log2 normalized intensity) is -1.38.
The same measure for AGGGAGATAGAGAAAGAAAAAGTACACACC: -1.34.
Regarding TCTAGTCTAGTCCAAACTGCAACCTGATAA, the binding signal (log2 normalized intensity) was found to be 0.16.
Take TGGGGTTCAGCCACACCAAGTCTGGACCTG: the binding signal (log2 normalized intensity) is 2.58.
The same measure for AGGCAAGATCCGAAGTCTAGGACGTTATCA: -1.1.
Turning to CCTCTTCTGGGAAGAGTAGATAAGCAGATC, the binding signal (log2 normalized intensity) is -1.27.
With TTGGGACAAAGTTTGCCTGGGCTCTAGACA the figure was -1.35; with AGCAGAAACATAGAAAGGAGTACACACCAT, -1.35.
The same measure for GTGTTTATGGCAAATTGATATCCTGTCTAT: 0.623; for CTTACATTTTGCTCTTTGTACCGTTTGAAC: 4.24; for GTTATCTCGGGGATGGCATGTCTCTGGTCG: 1.29.
With ACTGTCCTAGGTGCTGAAGATGCAACAGTG the figure was 0.987; with AAAGGAGGAATCTGTGAAGGTCAGGAGCCC, -0.114; with GACAGCAGGAGTGGGAGAAAGCTTTGGACT, 2.65.
Regarding AACAAGTAAGGAAGACAAGACAAGGAAGTT, the binding signal (log2 normalized intensity) is -1.39.
As for CAAAACTGGCAAAACTGGTCAATATCCACA, the binding signal (log2 normalized intensity) was -1.06.
With ATCCACATGTGGGTCCAAAGAACATTGCAT the figure was 3.03; with CCCTTGACCAAGCAGCTGTTTGACCAAAGC, -0.933.
The same measure for TATGGCCCACAAAGCCTAAAATATTCACTA: -1.34; for AAAGAATTCGTCCAGGGCCGCCCAAGCGAA: -1.13.
As for TCCGCTTGATGCCTGTTGCTCAGAATTACT, the binding signal (log2 normalized intensity) is -1.41.
With AACAAACAAAAACCAAAAAAACTTAACAGA, the binding signal (log2 normalized intensity) was -1.33.
As to GCAAAGTCCCTGGGGACAGGGATTAAGTAC, the binding signal (log2 normalized intensity) was -0.21.
Take GTCAGGAGACTGCTCGGCATCCCTGCCGTG: the binding signal (log2 normalized intensity) is -1.39.
The same measure for GAAAAATGTACATGTGCAAAAGCACCCAAG: -1.27; for AACATTGCATTCCTTTGTTTATCTAACCCA: 1.59; for GACTGATATTCAAACAGGTCAAGCAATGCT: -1.4.
Consider GCAGGTGTGGGGGCGGCAGGAGCCACAAGC, for which the binding signal (log2 normalized intensity) was -1.22.
With ATCAGCAAGGTAAACATGATGAAAGCAATG, the binding signal (log2 normalized intensity) was -1.07.
With AACCCCTCTCCAAGCCAGAAAGATGTTTGC the figure was 2.79.
With AGGAGTTCAGCAGCATCTAAACTCTACTCA the figure was -1.25; with CTGAACAAACAGCTTCCAGAATAGCCTCTG, -1.41.
The same measure for TTAAGTCCAGAAAAGACCAAAAAGGCTAAC: -1.13; for CATGCCACAGCGCCCTCAGTGTTTTCACTG: -0.56; for ATATATGTACAGCTGTGTATGTGGCAGGCA: 1.11.
On to TGGTACAGGGCCCAGAAAAGTAGATTGTTA, for which the binding signal (log2 normalized intensity) was -1.21.
With AGGCATGACAGAGTGTCCTGCCCCCTGGAG the figure was 4.33; with CGCGCGTGTGTGTGTGTGTGTGGTGTGTGT, 3.23.
With AGCGTCAATGCCCCAGAAAGCCAGCAGGGG the figure was -1.43.
Regarding GCTTGGGCGACGGACGCGCCGCGCCGGGGA, the binding signal (log2 normalized intensity) was -1.33.
In the case of TGACCTTTATCCAGTTCTGTGTACAAAGCC, the binding signal (log2 normalized intensity) came out at 3.01.
For the sequence GTGGTTTCTTCCACTGGAGTCTTGTTTGTC, the binding signal (log2 normalized intensity) turned out to be 1.9.
Turning to GGCCTGGTGGCTCCCCCAGGCGACTGGGCC, the binding signal (log2 normalized intensity) was 0.699.
The same measure for GATTACGATCCTGCCCTTCTGACCTCCCAG: 4.54; for GAAATGTAACCTTTGGCCAATTGCATTTTT: 5.04; for CCAATATAGCAAAGAGAGTCAAAGTTCAGG: 3.27.
With TTGCACCAGTTTCTCAACAGACCCCTGAAT the figure was 2.81; with CAGTAAGAGGATTTCTTCGCCACTTTCATC, -1.26.
With AACTTAGGCCCATATTCCTTAGATAAAAAG the figure was -0.773.
As for TTCAATAATACAAGAGGCTTCTTATCAGCA, the binding signal (log2 normalized intensity) was -1.3.
The same measure for ATTTATCTTTCCAGATTGTTCTATTAACCT: 1.68.
Regarding CTGATTAGCCTTTCCAAAGGAGGCAATGAG, the binding signal (log2 normalized intensity) is -1.33.
With CGATTATCTACAGATCTGGAGCCAGCAAGG the figure was -1.34; with TTAGTCCATGACGCAAGCGAGTAAGGCCCG, -1.22.
As to AATGGGTCCGAAGGTCAGCTGACCAACAGA, the binding signal (log2 normalized intensity) was determined as 4.98.
In the case of AGGCAATGTCACGTTTATTTCTAACAGCTG, the binding signal (log2 normalized intensity) was -1.3.
The same measure for CCTGGAGGGACTTTGTCCCACAGGAGAAGT: 4.07; for CCACGACAGAATTGACTCTTCGTTTTCTTT: 1.58.
As for ATTTGCAGCAAGGCCCAGGGCAAGGACTCT, the binding signal (log2 normalized intensity) is -1.32.
The same measure for TTTTGGGTAAAGTCCAGGCAGGACATCAAA: 2.27.
The same measure for AGATGAGGAAATTGAGGCTTAGCAGCTTGA: -1.15; for TCCTCAAAGAGCAGATGTGTCTTTATAACA: 0.719.
The same measure for TCCCCTGGGCCCACGGCTCTGCACAGCCTG: -1.06.
Regarding CAAGATTCTTGGAGGCTGCAGCGCCACATT, the binding signal (log2 normalized intensity) is -1.34.
Take ATGCCAGGCAAGAGCTCAGAAGCCACCAGT: the binding signal (log2 normalized intensity) was -1.3.
As for ACAGATTCAGAGTCACATTTTAAGAAACCT, the binding signal (log2 normalized intensity) was -1.17.
The same measure for CAGGGCAAGGACTCTAAAGGGAATAACCTT: 0.381; for GTCAAAGGTCAATGAAGCTCTTGCTGGTCA: 2.84.
For GTTGCTGTGCTGCCCTCTTGTGGCCATTTG, the binding signal (log2 normalized intensity) was determined as 1.56.
CCTGCCCTTTGTCCCTCCTGCTAGTCACAT: the binding signal (log2 normalized intensity) was found to be 3.
